Binding signal data for 22 molecules are collected here from PMC12136788.

To fix the notation:
T1: UNK ZnF1-6 (called full-length) (human, UniProt Q9C0B0 30-357)
T1 sequence: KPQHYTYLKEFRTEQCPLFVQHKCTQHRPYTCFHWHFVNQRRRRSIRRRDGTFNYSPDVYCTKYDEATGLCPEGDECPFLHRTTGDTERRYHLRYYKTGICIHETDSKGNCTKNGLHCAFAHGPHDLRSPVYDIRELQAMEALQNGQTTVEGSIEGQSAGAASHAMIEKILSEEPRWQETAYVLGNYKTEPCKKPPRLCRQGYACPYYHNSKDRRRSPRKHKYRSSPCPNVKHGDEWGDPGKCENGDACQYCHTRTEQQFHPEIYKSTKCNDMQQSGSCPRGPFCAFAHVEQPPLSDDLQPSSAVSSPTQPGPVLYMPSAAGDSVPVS

B1: chr11:10797513:10797714:-|3pUTR|ENSG00000110321|msi1_unk|total|mutant (ssRNA)
RNA: GGGAGUUCUACAGUCCGACGAUCUUCUGCAUAAGGUUUUUUUGCCGUGUAAUGUCUUAAUCACCGUCUACCAUCAAAUAUUUCCGGAGUAUCUUUAAUGUUCCGACCGUAUAUCCGCAGCAUGCAAUAAUUACAUCAUAAGUUCAACAGAGGAUUGAGCAUCA
B2: chr1:213241217:213241334:+|CDS|ENSG00000136643|unk|FALSE|unique (ssRNA)
RNA: GGGAGUUCUACAGUCCGACGAUCAGUUCUCCAAGAACAUCAGAUUCCCUCAGUAGAUCAAAAAAUAGCCCCAUGGAAUUCUUUAGGAUAGACAGUAAGGAUAGCGCAAGUGAACUCCUGGGACUUGACUUUGGAGAAAAAUUGCAACAGAGGAUUGAGCAUCA
B3: chr12:122341087:122341188:-|CDS|ENSG00000130779|unk|total|mutant (ssRNA)
RNA: GGGAGUUCUACAGUCCGACGAUCAGAAUUUGCUGAACUAAAAACACAAACCGAGAAAAUGAGACCCGAUUACCAACACGAAACCGAAAAUUUGCAGAAUCAACAAGACUCUGAACGGGCUGCCCAUGCUAAAGAGAUGGAAGCCAACAGAGGAUUGAGCAUCA
B4: chr9:20999508:21007036:-|three_prime_utr|ENSG00000188921|control|control|control (ssRNA)
RNA: GGGAGUUCUACAGUCCGACGAUCAUACCUUGUAUUUGAUAAAAAUCCAUUACAUGAAAUAACUGCACAUACCCCCAAAACUCUAGACAUAACAGGCUAUGUUUUUCACACAUUGUAUUUUUAAGACAUAUAUAUUCUCCAUACCAACAGAGGAUUGAGCAUCA
B5: chr11:69651733:69651797:+|3pUTR|ENSG00000110092|msi1_unk|total|mutant (ssRNA)
RNA: GGGAGUUCUACAGUCCGACGAUCAAAACAUUUUAAAAACACCGAAAAAUUCAGCAAACCAUUUUUAAAGCCGAAGAGGGUUUCCGGCCGAAAAACAUAUUCUUGUGCUUUUCCUGAUAAAGCACAGCUGCCGUGGGGUUCCCGCAACAGAGGAUUGAGCAUCA
B6: ENSG00000074590:stop:overlap|stop_codon|ENSG00000074590|stop_codon|NA|stop_codon (ssRNA)
RNA: GGGAGUUCUACAGUCCGACGAUCACAUGGAUGAUGUGACUCAGGUCUACAAGCAAGCGCUGGAGAUCUGCAGCAAGCUCAACUAGCAUUCCAGGGCGCCCAGGGGCGGGCGGGGGUACGAGGGAGGAAGGGGAGCAAGACUUGCAACAGAGGAUUGAGCAUCA
B7: chr20:4700004:4700108:+|3pUTR|ENSG00000171867|msi1|FALSE|unique (ssRNA)
RNA: GGGAGUUCUACAGUCCGACGAUCUCACCAUCUUUCUAAUCUUUUUCCAGCUUGAGGGAGGCGGUAUCCACCUGCAGCCCUUUUAGUGGUGGUGUCUCACUCUUUCUUCUCUCUUUGUCCCGGAUAGGCUAAUCAAUACCCUUGCAACAGAGGAUUGAGCAUCA
B8: chr7:32869000:32869101:-|3pUTR|ENSG00000170852|msi1|FALSE|bound_elsewhere (ssRNA)
RNA: GGGAGUUCUACAGUCCGACGAUCAAUUGAGAAACUUUAUGUGUAAUCAUGAGAGUAUAAGAAUCUGGAUUAUCUAACAUUGUUAGCCCUGUGUAUGUACAGUUCAAAAAGUUCAUUUAUAAAAGUAGUUUCCUGUUCCUAGUGCAACAGAGGAUUGAGCAUCA
B9: ENSG00000065911:stop:overlap|stop_codon|ENSG00000065911|stop_codon|NA|stop_codon (ssRNA)
RNA: GGGAGUUCUACAGUCCGACGAUCACAGCUGCUCCCUUCGCCUUCGCCCUUUCCACCUCGCGGCAGUUCGGGGAAUCUCUCCCUAGGUCAGGUUGGAGUGCAGUGCUGCAAUCACGGCUUACUGCAGCCUUGACCUCCUGGGCUCAACAGAGGAUUGAGCAUCA
B10: chr8:65707876:65707977:+|CDS|ENSG00000066855|unk|FALSE|unique (ssRNA)
RNA: GGGAGUUCUACAGUCCGACGAUCCCUGCUGCCCUCAUAGCAGAGGCUCUGAAAAAGAAAUUUGCUUAUCGGUAUCGAAGUGAUAGCCAAGAUGAAGUUGAAAAAGGAAUUCCAAAGUCUGAAUCAGAGGCCACCUCAGAGAGACAACAGAGGAUUGAGCAUCA
B11: chr9:96387934:96388035:-|3pUTR|ENSG00000165244|msi1|total|mutant (ssRNA)
RNA: GGGAGUUCUACAGUCCGACGAUCAAUAUUUUGUAAAUAUGGACUGCACAGUACAGGGCCGAAAACUACAUAUUGUGGGAAGCCCGAUUUUGCAAGUUUAAUGCAUUCAUUGGAAGCAGUUCUCACAGGAAGCACUUUCUGAAUCAACAGAGGAUUGAGCAUCA
B12: chr2:88027786:88028563:-|CDS|ENSG00000172086|control|control|control (ssRNA)
RNA: GGGAGUUCUACAGUCCGACGAUCAACCGUACAUGUCAGUACAGAAAAGCUUAAGAAUCGAAAGGAGAAAAAAAGCCGAGAUGUAGUCUCUAAGAAAGAGGAACGUAAGCGUACAAAAAAGAAAAAGGAACAAGGCCAAGAAAGCAACAGAGGAUUGAGCAUCA
B13: chr11:86278520:86278536:+|CDS_3pUTR|ENSG00000074266|msi1_unk|FALSE|overlapping (ssRNA)
RNA: GGGAGUUCUACAGUCCGACGAUCUGAUGCCAGUAUUUGGCGCUGGGAUCGACUUCGAUAAAAUACUUUUGCCUAAUCAAAAUUAGAGUGUGUUUGUUGUCUGUGUAAAAUAGAAUUAAUGUAUCUUGCUAGUAAGGGCACGUACAACAGAGGAUUGAGCAUCA
B14: ENSG00000113068:stop:overlap|stop_codon|ENSG00000113068|stop_codon|NA|stop_codon (ssRNA)
RNA: GGGAGUUCUACAGUCCGACGAUCGAAGCGUUAAGGAAGCUGAGGACAACAUCCGGGAGAUGCUGAUGGCACGAAGGGCCCAGUAGGGAGCCUCUCUGGGAAGCUCUUCCUCCUGCCCCUCCCAUUCCUGGUGGGGGCAGAGGACAACAGAGGAUUGAGCAUCA
B15: chr8:88167829:88167930:-|CDS|ENSG00000156103|msi1|FALSE|bound_elsewhere (ssRNA)
RNA: GGGAGUUCUACAGUCCGACGAUCCUUUGAUGUGUGGCAGAAUGUAACUCCUCUGACAUUUGAAGAAGUUCCCUACAGUGAAUUAGAAAAUGGCAAACGUGAUGUGGAUAUAACCAUUAUUUUUGCAUCUGGUUUCCAUGGGGACAACAGAGGAUUGAGCAUCA
B16: chr3:133826890:133826991:-|3pUTR|ENSG00000154917|unk|FALSE|unique (ssRNA)
RNA: GGGAGUUCUACAGUCCGACGAUCUUUGAACGUGUUUCAGAUGUCAUGUGUUUAGUUUUUAUAUGUGUGUACAUAAUUAUAUAUAGAGAUAGACUUGUGUAUACACCUUCCACAAACACAUCCUCACGGAGAUACAUGUGCUCACAACAGAGGAUUGAGCAUCA
B17: chr5:159157431:159157536:-|3pUTR|ENSG00000145860|unk|FALSE|bound_elsewhere (ssRNA)
RNA: GGGAGUUCUACAGUCCGACGAUCCAAAAAGUGUUUUUCAGACCUCGGUAUUCCUAAUGUGGGAUGUGACUUUAUUUUAUUUUUAGUAGCAAAUUUGGAUGUAGACUGACAGACAUAGCUGAAUGUCUUAAUAAAUUUAAAUUUCAACAGAGGAUUGAGCAUCA
B18: chrX:13708825:13708941:+|CDS|ENSG00000123595|unk|total|mutant (ssRNA)
RNA: GGGAGUUCUACAGUCCGACGAUCGAGUUCACUUAUGAACAGAUAUGUAACUAAUAAGUUUGAUACCCAGCUCUUCCAUACAACCGGUGUGGAAUUUUUAAAUAAAGAUUUGGAAGUGGAUGGACAUUUUGUUACCAUGCAGAUCAACAGAGGAUUGAGCAUCA
B19: chr18:9400975:9401076:+|3pUTR|ENSG00000128791|msi1|FALSE|unique (ssRNA)
RNA: GGGAGUUCUACAGUCCGACGAUCUAUAAAAAUAGAUAAUGCUCUUGGACACAUUUUGUAUUAUUCAUGAUCUGAAUAGUAGUUAGUUAAAAGAUCAUUUGUAAUAUUAUGAUCAACUGUUAUAAAUUAAGGUCUUAAUACCUUCAACAGAGGAUUGAGCAUCA
B20: chr1:214641902:214642005:+|CDS|ENSG00000117724|unk|total|mutant (ssRNA)
RNA: GGGAGUUCUACAGUCCGACGAUCAGAAAUCAAUGUAAUUUUAAACCUCAGAUGGAUCUUGAAGUUAAAGAAAUUUCUCCCGACCGUUAUAAUGCGCAGUUGGUGCAAUCCGAAGCUAUGCUAAGAAAUAAGGAAUUAAAACUUCAACAGAGGAUUGAGCAUCA
B21: chr4:168927217:168927233:+|3pUTR|ENSG00000129116|msi1_unk|FALSE|overlapping (ssRNA)
RNA: GGGAGUUCUACAGUCCGACGAUCAACCACCCAAAUGACCAAGGCAUAUAUAGUAUUUGGAGGAAUCAGGGGUUUGGAAGGAGUAGGGAGGAGAAUGAAGGAAAAUGCAACCAGCAUGAUUAUAGUGUGUUCAUUUAGAUAAAACAACAGAGGAUUGAGCAUCA
B22: chr14:53039561:53039662:-|3pUTR|ENSG00000100523|unk|total|mutant (ssRNA)
RNA: GGGAGUUCUACAGUCCGACGAUCUCAAACUAUAUUUUUGUUACAGCAAACUACAUUCCAUUUGCCUUUAAAUGCUUGCAUUUCCGUUAUUGUACUGGCUACCUGUUUUUGUCUGCCCAGCAUCCUGUUUCCCCUCCUUUUGGACAACAGAGGAUUGAGCAUCA

This is one part of the list.

The target of the assay is T1, UNK ZnF1-6 (called full-length). The experiment in a line: nsRBNS (natural sequence RNA bind-n-seq); RBNS binding buffer (assumed for nsRBNS): 25 mM Tris pH 7.5, 150 mM KCl, 3 mM MgCl2, 0.01% Triton X-100, 500 ug/ml BSA, 20 U/ml SUPERase-In, 4 C; UNK is unkempt and MSI1 is Musashi-1; names of the RNAs are library labels; protein concentration not given here; high values mean tight binding.
The molecule B1 showed a binding signal of 0.508 enrichment R. Turning to B2, the binding signal was determined as 2.63 enrichment R. As to B3, the binding signal was 0.521 enrichment R.

On to B4, for which the binding signal was 2.23 enrichment R. For B5, the binding signal came to 0.807 enrichment R. As for B6, the figure is 1.02 enrichment R. In the case of B7, the binding signal stood at 1.38 enrichment R. In turn, B8 came in with a binding signal of 0.774 enrichment R. For the molecule B9, the binding signal was 0.629 enrichment R. Then B10, with 0.424 enrichment R; and B11, with 0.299 enrichment R. As to B12, the binding signal turned out to be 0.699 enrichment R. On to B13, for which the binding signal was found to be 1.68 enrichment R.

In the case of B14, the binding signal stood at 0.898 enrichment R.

B15 displayed a binding signal of 0.335 enrichment R. Molecule B16 registered a binding signal of 0.601 enrichment R. B17 displayed a binding signal of 11.8 enrichment R. B18 showed a binding signal of 0.423 enrichment R. For the molecule B19, the binding signal was found to be 2.18 enrichment R.

Regarding B20, the binding signal amounted to 0.401 enrichment R.

B21: the binding signal worked out at 1.89 enrichment R. Molecule B22 had a binding signal of 0.468 enrichment R.
